# Data reported in article PMC7138859.
# Protein sequences, listed by entry. Tags and fused reporters are not part of them.
# UniProt Q63844: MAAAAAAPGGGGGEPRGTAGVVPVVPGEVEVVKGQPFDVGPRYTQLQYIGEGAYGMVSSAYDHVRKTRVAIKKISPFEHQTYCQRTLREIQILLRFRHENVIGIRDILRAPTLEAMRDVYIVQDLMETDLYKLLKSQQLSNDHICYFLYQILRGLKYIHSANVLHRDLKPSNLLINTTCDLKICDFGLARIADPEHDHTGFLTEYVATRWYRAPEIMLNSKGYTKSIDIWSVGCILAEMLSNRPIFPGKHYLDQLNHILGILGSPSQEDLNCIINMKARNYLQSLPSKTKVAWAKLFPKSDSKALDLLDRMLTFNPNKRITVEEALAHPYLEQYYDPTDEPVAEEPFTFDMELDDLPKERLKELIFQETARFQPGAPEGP
# UniProt P52164: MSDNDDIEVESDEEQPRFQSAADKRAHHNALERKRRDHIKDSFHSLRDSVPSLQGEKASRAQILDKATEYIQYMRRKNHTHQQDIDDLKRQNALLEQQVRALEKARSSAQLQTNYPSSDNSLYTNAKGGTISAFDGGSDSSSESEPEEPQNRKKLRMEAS
# UniProt P09416: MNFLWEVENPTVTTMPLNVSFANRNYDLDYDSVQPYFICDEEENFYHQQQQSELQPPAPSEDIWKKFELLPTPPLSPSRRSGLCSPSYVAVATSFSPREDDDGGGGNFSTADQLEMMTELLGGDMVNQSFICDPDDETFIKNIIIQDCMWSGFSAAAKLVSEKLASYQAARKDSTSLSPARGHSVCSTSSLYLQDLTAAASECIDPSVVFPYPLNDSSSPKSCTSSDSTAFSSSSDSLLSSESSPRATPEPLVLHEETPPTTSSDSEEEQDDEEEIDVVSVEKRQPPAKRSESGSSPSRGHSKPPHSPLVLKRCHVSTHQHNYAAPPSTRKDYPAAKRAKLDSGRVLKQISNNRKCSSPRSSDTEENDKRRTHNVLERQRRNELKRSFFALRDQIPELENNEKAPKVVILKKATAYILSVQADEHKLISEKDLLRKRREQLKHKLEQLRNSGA
# These are yes or no findings as the source states them, for the method shown. Binding seen in cells or lysates may run through a third protein. Some results given as binding are weak or reduced against the parent protein; the word gives no strength. For some of these results: Where a sequence is shown, tags or fusion partners need not be part of it.
# T1: ERK2 wild-type (extracellular signal-regulated kinase 2), Flag-tagged (mouse), P63085
# T1 chain: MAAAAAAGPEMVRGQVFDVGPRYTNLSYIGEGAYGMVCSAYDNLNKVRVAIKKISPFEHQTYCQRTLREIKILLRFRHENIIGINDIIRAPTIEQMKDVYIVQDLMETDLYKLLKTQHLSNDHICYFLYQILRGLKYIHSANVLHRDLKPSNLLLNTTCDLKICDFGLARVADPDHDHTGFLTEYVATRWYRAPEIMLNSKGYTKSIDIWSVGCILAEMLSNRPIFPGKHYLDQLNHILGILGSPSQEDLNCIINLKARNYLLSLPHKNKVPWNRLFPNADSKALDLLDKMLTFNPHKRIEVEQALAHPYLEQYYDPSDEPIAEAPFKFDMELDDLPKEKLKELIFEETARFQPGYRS
# What was measured:
# [1] = target: ERK1 wild-type (extracellular signal-regulated kinase 1), HA-tagged (mouse) (UniProt Q63844); assay: co-IP; lysates of cells overexpressing the tagged ERKs, stimulated with carbachol or PE, with or without EDI; Flag-ERK2 precipitated with anti-Flag on protein A-sepharose and HA-ERK2 blotted, or HA-ERK1 precipitated with anti-HA and Flag-ERK2 blotted; lysis buffer 1% Triton-X-100, 300 mM NaCl, 50 mM Tris pH 7.4, 5 mM EDTA; 2 h, 4 °C
# [2] = target: ERK2 wild-type (extracellular signal-regulated kinase 2), Flag-tagged (mouse) (UniProt P63085); assay: cross-linking; HEK293 cells transfected with Flag-ERK2 and myc-EDI, stimulated with 300 µM carbachol for 10 min; 0.75% PFA, 10 min, RT; SDS-PAGE and western blot, mobility shift of ERK2
# [3] = target: ERK2 wild-type (extracellular signal-regulated kinase 2), Flag-tagged (mouse) (UniProt P63085); assay: condition: only unstimulated cells (without carbachol); cross-linking; HEK293 cells transfected with Flag-ERK2 and myc-EDI, not stimulated; 0.75% PFA, 10 min, RT; SDS-PAGE and western blot
# [4] = target: transcription factor Max (UniProt P52164); assay: proximity ligation; Myc and Max, PE-induced, with or without EDI; cells not told in the text shown
# [5] = target: T1, ERK2 wild-type (extracellular …); assay: proximity ligation; NRCM transduced with adenoviruses for Flag-ERK2, HA-ERK2 and myc-EDI or LacZ; PE 4 µM, 10 min, 37 °C; fixed cells, Duolink with anti-Flag and anti-HA; details: remark: other sources report otherwise
# [6] = target: T1, ERK2 wild-type (extracellular …); assay: proximity ligation; COS7 cells transfected with HA- and Flag-tagged ERK2, loaded with the JOLU22-penetratin conjugate (30 min, 37 °C, HKR solution), then stimulated with PE; details: remark: other sources report otherwise
# [7] = target: T1, ERK2 wild-type (extracellular …); assay: co-IP; lysates of cells overexpressing the tagged ERKs, stimulated with carbachol or PE, with or without EDI; Flag-ERK2 precipitated with anti-Flag on protein A-sepharose and HA-ERK2 blotted, or HA-ERK1 precipitated with anti-HA and Flag-ERK2 blotted; lysis buffer 1% Triton-X-100, 300 mM NaCl, 50 mM Tris pH 7.4, 5 mM EDTA; 2 h, 4 °C; details: remark: other sources report otherwise
molecule,measurement,setting,value
"ERK2 wild-type (extracellular signal-regulated kinase 2), Flag-tagged (from UniProt P63085 1-358) (enzyme)",binding,[1],binds
"ERK-dimerization inhibitory peptide (EDI), myc-ERK2^309–357 (from UniProt P63085 309-357)",binding,[2],binds
same,binding,[3],no binding
transcription factor Myc (from UniProt P09416 1-453),binding,[4],binds
"ERK2 wild-type (extracellular signal-regulated kinase 2), Flag-tagged, P63085 1-358 (enzyme) MAAAAAAGPEMVRGQVFDVGPRYTNLSYIGEGAYGMVCSAYDNLNKVRVAIKKISPFEHQTYCQRTLREIKILLRFRHENIIGINDIIRAPTIEQMKDVYIVQDLMETDLYKLLKTQHLSNDHICYFLYQILRGLKYIHSANVLHRDLKPSNLLLNTTCDLKICDFGLARVADPDHDHTGFLTEYVATRWYRAPEIMLNSKGYTKSIDIWSVGCILAEMLSNRPIFPGKHYLDQLNHILGILGSPSQEDLNCIINLKARNYLLSLPHKNKVPWNRLFPNADSKALDLLDKMLTFNPHKRIEVEQALAHPYLEQYYDPSDEPIAEAPFKFDMELDDLPKEKLKELIFEETARFQPGYRS",binding,[5],binds
same,binding,[6],binds
same,binding,[7],binds
